Results: PubChem BioAssay (NCI)
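Protocol summary: plate cells (96-well), add compound at 5 concentrations, incubate 48 h, interpolate endpoints linearly. The concentration for 50% growth inhibition is given as GI50. Definition used: TGI = concentration required for complete inhibition of growth.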 Numbered stars: 1 amine (or outer) side, 2 acyl side, 3 side chain; on linkers, the order of the positions; unused ones are H or OH. Bridge positions count the residues as written; N and C are the ends. Square brackets hold non-standard residues; d marks the D form. Peptide text beside a SMILES is read from it. I, II: the chains in the order shown. Actinocin(1to9) = Cc1c2oc3c(C)ccc(C(=O)[*:2])c3nc-2c(C(=O)[*:1])c(N)c1=O; NMeV = CN[CH](C(=O)O)C(C)C; Sar = CNCC(=O)O

Test system: NCI-H322M lung
Experiment: NCI-60 cell line screen, 48 h

Row | SMILES | TGI [µM] | GI50 [µM]
1 | CC(=O)N1CCN(C=S)CC1 | > 100 | 
2 | NC(=O)N=Nc1c2ccccc2n2[nH]ccc12 | > 100 | 
3 | Nc1c(O)c(C(=O)O)cc2ccccc12 | 38.3 | 
4 | COC1=CC(=O)C2C(C1=O)[C@@H]1c3ccccc3OC[C@H]21 (stereo partly specified) | > 100 | 
5 | N#CCCN(CCC#N)c1ccc(/C=C2\N=C(c3ccccc3)N(c3ccccc3)C2=O)cc1 | > 100 | 
6 | C/C(CC(O)(C(F)(F)F)C(F)(F)F)=N/Nc1ccc([N+](=O)[O-])cc1[N+](=O)[O-] | > 10 | 
7 | CC1SC(c2cccc(Cl)c2)N(NC(=O)C(O)c2ccccc2)C1=O (stereo unspecified) | > 100 | > 100
8 | C1COCCOP2(N3CC3)=NP(N3CC3)(=NP(N3CC3)(N3CC3)=N2)OCCOCCO1 (stereo unspecified) | > 100 | 
9 | C/C=C1/C(=O)O[C@]23C=C[C@@H]4C(C(=O)OC)=CO[C@H](O[C@@H]12)[C@@H]43 | 8.42 | 
10 | COc1ccc(-c2cc(-c3ccccc3)nc(N)n2)c(O)c1 | > 100 | 
11 | N#CC12CC3(CCC1CCC1(C2)OCCO1)OCCO3 (stereo unspecified) | > 100 | 
12 | COc1cc2c3c(n(CCCN4CCN(CCO)CC4)c(=O)c2cc1OC)-c1cc2c(cc1C3=O)OCO2 | > 51.6 | 18.2
13 | COc1cc2c(cc1O)N=C[C@@H]1CCC(O)N1C2=O (mixture of isomers) | 28.4 | 
14 | O=C1NC(=O)C2(CCc3ccc(N(CCCl)CCCl)cc32)N1 (stereo unspecified) | > 100 | 
15 | CN1CCN(Cc2ccc(NC(=O)c3[nH]ncc3Nc3cc(OC4CCCC4)ncn3)cc2)CC1 | 15.4 | 3.64
16 | COC(=O)C1=C(O)C(C(=O)OC)[C@@]2(O)[C@@H](C(=O)OC)C(c3ccccc3Cl)C[C@@H]1[C@@H]2C(=O)OC (stereo partly specified) | 27.5 | 13.3
17 | CN1C(=O)C(O)C[C@@H]1c1ccc(F)cc1 (stereo partly specified) | > 100 | 
18 | CCC(C)C1NC(=O)C(NC(=O)c2c3nc4c(C(=O)NC5C(=O)NC(C(C)C)C(=O)N6CCCC6C(=O)N(C)CC(=O)N(C)C(C(C)C)C(=O)OC5C)ccc(C)c4oc-3c(C)c(=O)c2N)C(C)OC(=O)C(C(C)C)N(C)C(=O)CN(C)C(=O)C2CCCN2C1=O (stereo unspecified) (I: TIP[Sar][NMeV] / II: TVP[Sar][NMeV]; ester I:1-I:C, II:1-II:C; linker I:N-II:N via Actinocin(1to9); configuration not given here) | 0.499 | 
19 | C=C(C)COC(=O)COCC(=O)OCC(=C)C | > 100 | 
20 | CC(=O)OC[C@]12CCC3[C@@]4(C)CCCC(C)(C)C4CC[C@@]3(C)C1CC(C1=CC(=O)OC1O)O2 (stereo partly specified) | 4.9 | 
21 | OCC(O)C(OC1OC(CO)C(O)C(O)C1O)c1nn(-c2ccc(Cl)cc2)c2nc3cc(Cl)ccc3nc12 (stereo unspecified) | > 100 | 
22 | Cc1cc(C)nc(NS(=O)(=O)c2ccc(NC(=O)c3ccc4nc5ccccc5c(Nc5ccc(S(=O)(=O)Nc6nc(C)cc(C)n6)cc5)c4c3)cc2)n1 | > 100 | 
23 | CCCCCCC(=O)CC(=O)C(=O)Nc1ccccc1C | > 100 | 
24 | N#CCCn1c(CCC(=O)Nc2ccc(Cl)cc2Cl)n[nH]c1=S | > 100 | 
25 | O=C(NC(Cc1ccccc1)P(=O)(O)c1ccccc1)OCc1ccccc1 (stereo unspecified) | > 100 | 
26 | CC(C)CC1NC(=O)C(C(C)C)NC(=O)CC(C)COC(=O)C(CC(C)C)N(C)C(=O)C(C(C)C)NC(=O)C(C(C)C)OC1=O (stereo unspecified) | > 50 | 
27 | N#CC1([N+](=O)[O-])C=C1c1ccccc1 (stereo unspecified) | > 100 | 

Row | SMILES | TGI [µM] | GI50 [µM]
28 | O=S1(=O)C=C(c2ccccc2)C(c2ccccc2)=C1 | 14.3 | 3.22
29 | CCC12C=CCN3CCC4(C(=C(C(=O)OC)C1)Nc1ccccc14)[C@H]32 (stereo partly specified) | > 100 | 
30 | CSc1nc(-c2cccc(NC(=O)CCl)c2)c(C#N)c(=O)n1C | 12.9 | 3.39
31 | CCCNC(=O)Nc1ccc2c(c1)Cc1cc(N(CCCl)CCCl)ccc1-2 | > 100 | 
32 | Cc1cn(C2CC(O)C(Cn3nncc3Cn3ccc(=O)[nH]c3=O)O2)c(=O)[nH]c1=O (stereo unspecified) | > 100 | 
33 | O=S1Cc2ccccc2CSS1 (stereo unspecified) | > 100 | 
34 | Nc1nc(N)c(-c2ccc(Cl)cc2)c(/C=C/c2ccc([N+](=O)[O-])cc2)n1 | > 100 | 21.4
35 | CCN(CC)c1ccc2cc(-c3csc(-c4ccc(N(C)C)cc4)n3)c(=O)oc2c1 | > 100 | 
36 | O=Cc1ccc2[nH]c(=O)oc2c1 | > 100 | 
37 | CC1(C)O[C@@H](CP(c2ccc3ccccc3c2)c2ccc3ccccc3c2)[C@H](CP(c2ccc3ccccc3c2)c2ccc3ccccc3c2)O1 | > 100 | 
38 | Cc1c(C(=O)Nc2ccc(Cl)cc2)nc(N)nc1-c1cccc(Cl)c1 | > 100 | 
39 | CC(=O)Oc1ccc2c3c1[C@@H]1O[C@@H]1c1cccc(c1-3)[C@@H]1O[C@H]21 | 19.8 | 
40 | NC(=O)N/N=C/c1ccccc1O | > 100 | 
41 | O=C(OCc1ccccc1)c1ccccc1-c1c2ccc(=O)cc-2oc2cc(OCc3ccccc3)ccc12 | > 100 | 
42 | NC(N)=N/N=C/c1c(-c2ccc(Cl)cc2)nc2n1CCS2 | 27.2 | 
43 | COc1ccc2oc3c(ccc[n+]3C)c(=O)c2c1 | > 100 | 
44 | O=c1c2cc([N+](=O)[O-])cnc2sn1-c1ccc(Br)cc1 | > 100 | 
45 | CSc1nc(Cl)c2c(n1)Sc1nc3ccccc3n1N=C2 | > 100 | 
46 | CCN1C(=O)N(CC)C2C1NN=c1s/c(=C\c3cnc(C)n3C)c(=O)n12 (stereo unspecified) | > 100 | 5.65
47 | CCOC(=O)C(C(=O)OCC)C(NC(=O)Nc1cc(C(F)(F)F)ccc1OC)(C(F)(F)F)C(F)(F)F | 82.7 | 
48 | C/C(=N\NS(=O)(=O)c1ccccc1)c1ccc[n+]([O-])n1 | > 100 | 
49 | CC(C)=C=CC(C)(C)NS(=O)(=O)NC(C)(C)C=C=C(C)C | > 100 | 
50 | ClCCCN1CCCCC1CCl (stereo unspecified) | > 100 | 
51 | COc1cc(OC)cc(Oc2nc3c(N)cc(C(F)(F)F)cc3nc2-c2ccccc2)c1 | > 100 | 
52 | O[C@H]1[C@@H]2OC[C@@H](O)[C@H](OCc3ccccc3)[C@@](COCc3ccccc3)(O2)[C@@H]1OCc1ccccc1 | 30.3 | 
53 | COc1cc2c3c4c1OCc1c5c(cc(c1-4)CC3[N+](C)(C)CC2)OCO5 (stereo unspecified) | > 100 | 
